Assay results taken from the supplement of paper PMC7335073.
In all, about 4,100 sequences were measured (“relative CpG methylation activity (normalised to average over all NNNCGNNN flanks)”: median about 0.94, highest 2% from about 1.9 on). The list shows a part of the results.

Each sequence was assayed against DNMT3B catalytic domain (mouse) (UniProt O88509) (assay: relative CpG methylation activity (normalised to average over all NNNCGNNN flanks) (relative (1 = mean)); higher = more methylation of the central CpG). Conditions: system: in vitro, murine catalytic domain; CpG state: hemimethylated substrate pool; residues: 558-859.
Chain of UniProt O88509 (O88509 558-859): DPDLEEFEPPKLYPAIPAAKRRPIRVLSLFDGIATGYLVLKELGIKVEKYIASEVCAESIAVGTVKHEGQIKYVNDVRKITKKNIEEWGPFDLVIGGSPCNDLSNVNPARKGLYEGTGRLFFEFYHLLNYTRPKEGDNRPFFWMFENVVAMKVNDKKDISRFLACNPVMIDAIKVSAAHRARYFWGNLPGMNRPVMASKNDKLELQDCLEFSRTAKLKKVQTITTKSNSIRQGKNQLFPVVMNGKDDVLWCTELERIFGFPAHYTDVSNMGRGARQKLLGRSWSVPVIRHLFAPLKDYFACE
Summary of the method: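 Pooled dsDNA substrates with a central CpG inside 10 random flanking nucleotides were methylated by murine DNMT3A or DNMT3B catalytic domain with 0.8 mM S-adenosyl-L-methionine in HEPES pH 7.5 buffer for 60 min at 37 °C. The DNA then went through proteinase K, BsaI-HFv2 digestion, hairpin ligation, bisulfite conversion and two-step PCR before Illumina sequencing. Relative methylation activity is the average methylation of each context with three flanking bases per side, divided by the mean over all contexts. Each experiment had two independent repeats.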

Sequence | relative CpG methylation activity
GGTCGACA | 0.906
CGCCGCGT | 0.252
GTCCGATG | 1.16
GCGCGATG | 0.905
TAGCGGGT | 0.833
CTACGTTT | 1.59
ATTCGGCC | 2.04
TTCCGGGA | 1.43
CAGCGAAC | 0.981
CTCCGAGC | 2.06
GTCCGGGC | 1.53
CATCGGGA | 1.68
GGGCGTTA | 0.156
GTCCGACA | 1.26
TTCCGAAC | 1.89
TTGCGCTA | 0.677
TCGCGGAA | 0.635
GTGCGTCT | 0.797
ATACGGAT | 1.46
ATCCGGCG | 1.82
GTCCGTGC | 0.758
CGCCGCCT | 0.572
TGGCGCAG | 0.179
CATCGCCG | 1.12
TTGCGCAC | 0.917

Sequence | relative CpG methylation activity
GGCCGATA | 1.01
CTTCGGGT | 1.33
AGTCGCCT | 1.07
TGCCGCTC | 0.685
ATCCGCGT | 0.671
GTACGCTA | 1.23
CTGCGAAG | 1.12
AGCCGCTT | 0.239
GAACGGAG | 0.885
AGCCGAGA | 1.25
AGACGCAA | 0.525
GTTCGGTT | 1.1
GAGCGTGC | 0.641
CACCGAAT | 1.09
AAACGGCG | 1.68
TTACGACT | 1.72
TTGCGTCA | 0.789
CCACGAGG | 1.49
TAGCGTGA | 0.345
GTCCGCGG | 0.8
GACCGCCT | 0.517
GTTCGGCC | 1.81
CGACGCCG | 1.05
CCCCGTGG | 0.244
GTGCGGTT | 0.943

Sequence | relative CpG methylation activity
TCACGGGC | 1.62
CTACGGGC | 1.75
AGTCGCTC | 1.06
GATCGTTG | 0.455
ACGCGGGA | 1.09
GTTCGGTA | 1.17
TCGCGCAC | 0.399
GACCGAGA | 1.25
AAGCGTCG | 0.521
GTGCGATC | 1.16
GGCCGGAT | 0.26
ATACGTCC | 1.54
GCCCGCAG | 0.312
TAGCGGTT | 1.07
TGGCGGGC | 0.931
GCTCGATC | 1.42
GGTCGACC | 1.11
TGTCGAAT | 1.03
ATGCGTCG | 0.764
TGGCGGGG | 0.595
TGCCGCGA | 0.26
TAGCGGTG | 0.473
CCACGATG | 1.42
GTGCGGTA | 1.2
CTGCGCCA | 1.17

Sequence | relative CpG methylation activity
GGACGTAA | 0.527
CATCGCTA | 0.882
GCGCGCTT | 0.847
GCTCGTCA | 0.561
AGGCGCTT | 0.466
ATCCGCAG | 0.458
GCACGTAA | 0.823
TAGCGCGG | 0.469
TAACGTGT | 0.627
CTGCGAAC | 1.27
ACGCGCGC | 0.797
GCTCGTAC | 0.896
GGGCGATG | 0.887
CGTCGTCA | 0.438
ATCCGAAT | 1.3
GCACGAGG | 1.46
ACGCGATT | 1.09
TGGCGGTC | 0.896
CGTCGTAG | 0.204
TGACGCGC | 1.12
CCCCGCAC | 0.866
AAACGCCT | 1.49
GGGCGAAG | 0.305
CCACGTCA | 1.24
GATCGTGA | 0.133

Sequence | relative CpG methylation activity
GACCGTGG | 0.126
GCGCGAGA | 1.07
CGACGATC | 1.6
CGGCGCAA | 0.2
GAGCGAAG | 0.643
ACCCGGTT | 1.29
GGGCGACA | 0.726
GCCCGTAG | 0.248
GATCGGGC | 1.45
CCACGAGC | 1.84
TCGCGGCG | 1.53
GGTCGCAG | 0.192
ATTCGAGG | 1.29
AGCCGTCA | 0.3
GCGCGGGC | 1.12
GAGCGTAG | 0.699
TTTCGGAC | 1.24
TGTCGTTT | 0.256
TGGCGACT | 0.685
CACCGGGC | 1.16
AGCCGGAG | 0.191
ATCCGACC | 1.51
ACTCGCGT | 0.486
AAACGTGC | 0.89
TACCGAAC | 1.23

Sequence | relative CpG methylation activity
TAGCGCTT | 0.668
TCGCGCGA | 0.389
TAACGTTA | 0.816
ACACGCGT | 0.999
TCACGTAT | 1.1
CGGCGCTT | 0.53
ATCCGAGA | 1.4
CAACGTTT | 0.764
CTGCGATT | 1.43
CGACGGTC | 1.18
TGTCGCGC | 0.698
GTACGAGG | 1.56
CAACGCGG | 1.11
AGGCGAGT | 1.07
ATACGTAC | 1.5
GCTCGGCT | 1.85
CAACGTAA | 0.917
TTTCGTGC | 0.994
CGACGTTT | 0.532
TCGCGTTA | 0.51
GGGCGTAA | 0.252
ACTCGACT | 1.23
TCGCGACA | 1.05
GTTCGCTA | 0.524
GTTCGTTC | 0.845

Sequence | relative CpG methylation activity
CGACGGTG | 1.06
GTTCGTTG | 0.375
TGTCGAAC | 1.46
TTGCGCTT | 1.04
TGGCGAAC | 0.647
CTACGATA | 1.97
AGTCGGAA | 0.907
TAGCGTAC | 0.727
TCGCGCGC | 0.708
CTGCGGTT | 1.07
TCCCGTAC | 1.11
ACGCGCCA | 0.83
CGTCGTGT | 0.248
TCGCGAGA | 1.2
GTTCGGAG | 0.641
ATGCGTTC | 1.12
GAACGGCC | 1.81
CGCCGCAA | 0.297
CAGCGGCG | 1.46
CAACGAGT | 1.47
ATACGGGT | 1.73
GTCCGACG | 1.11
